Hit rate of the full screen: of about 39,000 compounds, about 220 (0.56%) showed activity. Some of the results follow.
What follows are compounds tested on Escherichia coli K-12 BW25113 (assay: relative growth (OD600 normalised to plate interquartile mean) (fraction); higher = less growth inhibition, active = 0.2 or less). Details: 50 µM; LB; incubation time: overnight (16-24 h).
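Also: static incubation at 37 °C against the wild-type strain, values averaged over two biological replicates.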

Structure (SMILES) | relative growth
Cc1noc(C)c1S(=O)(=O)N(C)C[C@H]1OCCCC[C@@H](C)Oc2ccc(NC(=O)Nc3ccc(F)cc3)cc2C(=O)N([C@H](C)CO)C[C@@H]1C | inactive: 1
COc1ccc(S(=O)(=O)N(C)C[C@H]2OCCCC[C@@H](C)Oc3ccc(NC(=O)Nc4ccc(C(F)(F)F)cc4)cc3C(=O)N([C@H](C)CO)C[C@H]2C)cc1 | inactive: 1.04
C[C@@H]1CCCCO[C@H](CN(C)Cc2ccc(C(=O)O)cc2)[C@@H](C)CN([C@@H](C)CO)C(=O)c2cc(NS(=O)(=O)c3cccs3)ccc2O1 | inactive: 1.01
COc1ccc(S(=O)(=O)N(C)C[C@@H]2Oc3cc(C#CC4CCCC4)ccc3S(=O)(=O)N([C@@H](C)CO)C[C@@H]2C)cc1 | inactive: 1.02
C[C@H](CO)N1C[C@H](C)[C@@H](CN(C)C(=O)Nc2cccc3ccccc23)Oc2ccc(NS(=O)(=O)c3cccs3)cc2CC1=O | inactive: 1.02
C[C@@H]1CN([C@H](C)CO)C(=O)c2cc(/C=C/c3ccccc3)cnc2O[C@H]1CN(C)C(=O)C1CCOCC1 | inactive: 1.02
C[C@@H]1CN([C@H](C)CO)C(=O)c2cc(NC(=O)Nc3ccc(F)cc3)ccc2O[C@@H](C)CCCCO[C@@H]1CN(C)Cc1ccc(C(F)(F)F)cc1 | inactive: 0.999
CN1C(=O)c2cc(NC(=O)c3cnccn3)ccc2OC[C@H]2O[C@H](CC(=O)N[C@@H]3CCN(Cc4ccccc4)C3)CC[C@@H]21 | inactive: 0.999
C[C@@H]1CN([C@@H](C)CO)C(=O)c2cc(NC(=O)NC3CCCCC3)ccc2O[C@@H](C)CCCCO[C@@H]1CN(C)S(=O)(=O)c1cccs1 | inactive: 1.01
COCC#Cc1ccc2c(c1)O[C@H](CN(C)S(=O)(=O)c1cccc(OC)c1)[C@H](C)CN([C@@H](C)CO)S2(=O)=O | inactive: 1.01
CN(C)CC(=O)N1CC(=O)N2[C@@H](CO)[C@@H](c3ccc(C#Cc4cccnc4)cc3)[C@@H]2C1 | inactive: 1.02
C[C@H]1CN([C@@H](C)CO)C(=O)c2cccc(NC(=O)C3CCOCC3)c2O[C@@H]1CN(C)S(=O)(=O)c1cccs1 | inactive: 0.983
C[C@@H]1CCCCO[C@H](CN(C)C(=O)NC2CCCCC2)[C@H](C)CN([C@@H](C)CO)C(=O)c2cc(NC(=O)C3CCCCC3)ccc2O1 | inactive: 1.02
C[C@@H]1CN([C@@H](C)CO)C(=O)CCCn2cc(nn2)CO[C@@H]1CN(C)C(=O)Nc1ccc(N2CCCCC2)cc1 | inactive: 0.969
Cc1ccc(S(=O)(=O)Nc2ccc3c(c2)C(=O)N([C@H](C)CO)C[C@@H](C)[C@@H](CN(C)Cc2ccc4c(c2)OCO4)OCCCC[C@@H](C)O3)cc1 | inactive: 1.01
Cc1ccc(S(=O)(=O)N[C@H]2CC[C@H](CC(=O)N3CCC(Cc4ccccc4)CC3)O[C@H]2CO)cc1 | inactive: 1.02
C/N=C1/S[C@@H](CC(N)=O)C(=O)N1C | inactive: 0.974
O=C(C[C@H]1CC[C@H]2[C@@H](COC[C@H](O)CN2C(=O)Nc2ccc(Cl)cc2)O1)NC1Cc2ccccc2C1 | inactive: 0.878
C[C@H]1CN([C@@H](C)CO)C(=O)c2cc(NC(=O)NC3CCCCC3)ccc2O[C@H]1CN(C)Cc1ccc(C(=O)Nc2ccccc2N)cc1 | inactive: 1.01
COc1ccc(C#Cc2cnc3c(c2)C(=O)N([C@H](C)CO)C[C@H](C)[C@H](CN(C)S(=O)(=O)c2ccccc2)O3)cc1OC | inactive: 0.996

Structure (SMILES) | relative growth
C[C@@H]1CN([C@@H](C)CO)S(=O)(=O)c2ccc(/C=C/c3ccccc3)cc2O[C@H]1CN(C)C(=O)CN1CCOCC1 | inactive: 1.01
C[C@H](CO)N1C[C@H](C)[C@@H](CN(C)C(=O)Nc2ccccc2)OCCCC[C@H](C)Oc2ccc(NS(=O)(=O)c3ccccc3)cc2C1=O | inactive: 1.02
Cc1noc(C)c1NC(=O)Nc1ccc2c(c1)C(=O)N([C@@H](C)CO)C[C@H](C)[C@@H](CN(C)C(=O)Nc1ccccc1)OCCCC[C@H](C)O2 | inactive: 1.02
O=c1c(O[C@@H]2O[C@H](CO)[C@@H](O)[C@H](O)[C@@H]2O[C@H]2OC[C@](O)(CO)[C@H]2O)c(-c2ccc(O)c(O)c2)oc2cc(O)cc(O)c12 | inactive: 1.02
O=P(O)(O)C(O)(Cn1ccnc1)P(=O)(O)O | inactive: 1.07
Cc1ccc(S(=O)(=O)Nc2ccc3c(c2)C(=O)N([C@H](C)CO)C[C@@H](C)[C@H](CN(C)S(=O)(=O)c2cccs2)O3)cc1 | inactive: 0.986
O=C(NCCCN1CCOCC1)C(=O)NC1CC1 | inactive: 0.999
C[C@@H]1CN([C@@H](C)CO)S(=O)(=O)c2ccc(C#CCN(C)C)cc2O[C@@H]1CN(C)S(C)(=O)=O | inactive: 1.01
C[C@H](CO)N1C[C@H](C)[C@@H](CN(C)C(=O)Cc2ccccn2)Oc2cc(C#C[C@@H](C)O)ccc2S1(=O)=O | inactive: 1.01
COc1ccc(S(=O)(=O)N(C)C[C@@H]2Oc3ccc(NC(=O)Cc4ccccc4)cc3CC(=O)N([C@H](C)CO)C[C@@H]2C)cc1 | inactive: 0.974
C[C@@H]1CCCCO[C@H](CN(C)S(=O)(=O)c2ccc(F)cc2)[C@@H](C)CN([C@H](C)CO)C(=O)c2cc(NC(=O)c3ccccc3)ccc2O1 | inactive: 1.04
Cc1ccc(S(=O)(=O)Nc2ccc3c(c2)C(=O)N([C@H](C)CO)C[C@H](C)[C@H](CN(C)S(=O)(=O)c2ccc(F)cc2)OCCCC[C@@H](C)O3)cc1 | inactive: 1.02
C[C@H](CO)N1C[C@H](C)[C@@H](CN(C)S(=O)(=O)c2cn(C)cn2)Oc2c(NS(=O)(=O)c3cn(C)cn3)cccc2C1=O | inactive: 0.997
C[C@H]1CCCCO[C@H](CN(C)C(=O)Nc2ccc3c(c2)OCO3)[C@@H](C)CN([C@@H](C)CO)C(=O)c2cc(NC(=O)c3ccccc3)ccc2O1 | inactive: 1.02
C[C@@H]1CCCCO[C@H](CN(C)S(=O)(=O)c2cn(C)cn2)[C@H](C)CN([C@@H](C)CO)C(=O)c2cc(NS(=O)(=O)c3cccs3)ccc2O1 | inactive: 1.01
CC(C)c1c(O)ccc2c1CCC1C(C)(C=O)CCCC21C (stereo not drawn) | inactive: 0.976
O=C(O)[C@@H](O)[C@H](O)C(=O)O | inactive: 1.02
COc1cccc(C#Cc2cnc3c(c2)C(=O)N([C@@H](C)CO)C[C@@H](C)[C@@H](CN(C)C(=O)C2CCOCC2)O3)c1 | inactive: 0.975
CCCCCCCCCCCC(=O)OCN1C(=O)CCc2ccc(OCCCCN3CCN(c4cccc(Cl)c4Cl)CC3)cc21 | inactive: 1.05
C[C@H]1CN([C@@H](C)CO)C(=O)c2cc(NC(=O)Nc3cccc4ccccc34)ccc2O[C@H]1CN(C)Cc1ccc(C(F)(F)F)cc1 | inactive: 0.989

Structure (SMILES) | relative growth
C#CC1(OC(C)=O)CCC2C3CCC4=CC(=O)CCC4C3CCC21C (stereo not drawn) | inactive: 1.1
COc1ccccc1CNC(=O)C[C@H]1CC[C@H]2[C@@H](COC[C@@H](O)CN2C(=O)Nc2ccc(F)cc2)O1 | inactive: 0.957
CC(C)(CO)[C@@H](O)C(=O)NCCC(=O)O | inactive: 1.02
Cc1noc(C)c1NC(=O)Nc1ccc2c(c1)C(=O)N([C@@H](C)CO)C[C@@H](C)[C@H](CN(C)Cc1ccc(-c3ccccc3)cc1)O2 | inactive: 1.02
COCC(=O)Nc1ccc2c(c1)C(=O)N(C)C[C@H](OC)[C@H](C)CN(C(=O)Cc1ccccn1)[C@H](C)CO2 | inactive: 1.01
COc1cccc(-c2cnc3c(c2)C(=O)N([C@H](C)CO)C[C@H](C)[C@H](CN(C)S(=O)(=O)c2ccccc2)O3)c1 | inactive: 0.988
COc1ccc([Si](C)(C)[C@H]2[C@H](CCn3cc([C@H](O)c4ccccc4)nn3)O[C@@]3(C(=O)N(Cc4cccc(N5CCC5=O)c4)c4ccccc43)[C@@H]2C)cc1 | inactive: 1.04
CC1=C(CCC(=O)O)c2cc3[nH]c(cc4nc(cc5[nH]c(cc1n2)c(C)c5C(C)O)C(C)=C4C(C)O)c(C)c3CCC(=O)O (stereo not drawn) | inactive: 1.06
Cc1ccc(S(=O)(=O)N(C)C[C@@H]2OCCCC[C@@H](C)Oc3ccc(NS(C)(=O)=O)cc3C(=O)N([C@@H](C)CO)C[C@@H]2C)cc1 | inactive: 0.996
C[C@H](CO)N1C[C@H](C)[C@H](CN(C)S(=O)(=O)c2cn(C)cn2)Oc2ccc(NS(=O)(=O)c3cccs3)cc2CC1=O | inactive: 1.01
CCC(C)C(=O)OC1CC(C)C=C2C=CC(C)C(CCC3CC(O)CC(=O)O3)C21 (stereo not drawn) | inactive: 0.973
C[C@H]1CN([C@@H](C)CO)C(=O)c2cccc(NC(=O)Nc3ccc(F)cc3)c2O[C@H]1CN(C)S(C)(=O)=O | inactive: 0.989
C[n+]1cc2c3c(ccc2c2ccc4cc5c(cc4c21)OCO5)OCO3.[Cl-] | inactive: 0.67
CNC[C@H]1Oc2cc(C#CC(C)(C)O)ccc2S(=O)(=O)N([C@H](C)CO)C[C@@H]1C | inactive: 1.01
C[C@H](CO)N1C[C@H](C)[C@@H](CN(C)C(=O)Nc2ccc(N3CCCCC3)cc2)OCc2cn(nn2)CCCC1=O | inactive: 0.993
Cc1ccc(S(=O)(=O)N(C)C[C@H]2Oc3ccc(NS(=O)(=O)c4cccs4)cc3CC(=O)N([C@@H](C)CO)C[C@H]2C)cc1 | inactive: 1.02
C[C@@H]1CCCCO[C@@H](CN(C)C(=O)c2ccccc2)[C@@H](C)CN([C@@H](C)CO)C(=O)c2cc(NS(=O)(=O)c3ccc(F)cc3)ccc2O1 | inactive: 1
C[C@@H]1CN([C@H](C)CO)C(=O)c2cc(NC(=O)Nc3cccc4ccccc34)ccc2O[C@H]1CN(C)Cc1ccc(C(F)(F)F)cc1 | inactive: 1.01

Source: the supplement of paper PMC9446081
